According to article PMC6919601, “Identification of Plasmodium dipeptidyl aminopeptidase allosteric inhibitors by high throughput screening” (PLoS ONE, 2019):
Values joined by “and” are separate entries in the source; they are usually repeats but may differ in a detail not shown here. Identical values can stand only once. About 230 (0.21%) of roughly 110,000 compounds showed an effect of 50% or more. The list shows a part of the results.

Target: DPAP1 (Plasmodium falciparum, UniProt Q8IIJ9)
Assay: primary screen, percent inhibition; read by cleavage of a fluorogenic dipeptide substrate; higher = more effect of the substance
Set-up: species or system P. falciparum D10 trophozoite lysates; single well
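Also: 30 min substrate incubation versus DMSO and 10 µM JCP410 controls.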

DPAP1, sequence (Q8IIJ9 whole entry, looked up): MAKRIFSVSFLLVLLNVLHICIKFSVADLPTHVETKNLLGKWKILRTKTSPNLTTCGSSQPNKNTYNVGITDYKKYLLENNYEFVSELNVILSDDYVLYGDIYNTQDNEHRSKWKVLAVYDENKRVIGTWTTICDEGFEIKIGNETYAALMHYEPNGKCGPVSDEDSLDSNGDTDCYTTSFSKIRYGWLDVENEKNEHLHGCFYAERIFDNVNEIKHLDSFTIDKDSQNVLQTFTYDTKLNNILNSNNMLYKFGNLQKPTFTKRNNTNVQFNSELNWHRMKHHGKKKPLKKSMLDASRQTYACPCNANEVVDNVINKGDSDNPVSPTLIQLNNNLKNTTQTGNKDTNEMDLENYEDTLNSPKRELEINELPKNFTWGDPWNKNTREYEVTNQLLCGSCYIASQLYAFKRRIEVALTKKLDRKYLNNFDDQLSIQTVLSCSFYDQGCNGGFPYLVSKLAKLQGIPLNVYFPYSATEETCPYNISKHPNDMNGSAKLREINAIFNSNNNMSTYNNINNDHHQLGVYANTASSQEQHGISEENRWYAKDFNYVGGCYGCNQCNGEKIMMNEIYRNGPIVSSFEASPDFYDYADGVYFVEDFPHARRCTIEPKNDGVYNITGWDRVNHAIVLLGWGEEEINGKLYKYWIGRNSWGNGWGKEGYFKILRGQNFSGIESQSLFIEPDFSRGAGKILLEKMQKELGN

SMILES | % Inhibition @ 10 uM
Cc1nc2nc(-c3ccc(Cl)cc3Cl)nn2c(C)c1CCC(=O)NC1CCCC1 | 2.57%
CC(NCc1ccc2c(c1)OCO2)C12CC3CC(CC(C3)C1)C2 (stereo not shown) | 2.93%
COc1cc2c(-c3cccnc3)nc3c(cnn3-c3ccccc3)c2cc1OC | 2.53%
Cc1cc(C)c2c(=O)c3c(oc2c1)C(=O)N(CCO)C3c1cccc(Br)c1 (stereo not shown) | 4.83%
C=C(C)[C@@H]1CC=C(CN2CC(C)OC(C)C2)CC1 (stereo partly shown) | -1.78%
CCOc1ccc(C(=O)NCc2ccccc2OC)cc1 | 3.65%
COc1ccc(/C=C2\SC(=O)N(Cc3ccc(F)cc3)C2=O)cc1 | 7.39%
Cc1nc2c3ccccc3n3c(CCCC(=O)N4CCC(Cc5ccccc5)CC4)nnc3n2n1 | 5.09%
Cn1c(SCc2cccc(Br)c2)nc2c1c(=O)[nH]c(=O)n2C | 3.05%
CC(Oc1ccc(Cl)cc1Cl)C(=O)Nc1ccc(S(N)(=O)=O)cc1 (stereo not shown) | -0.759%
CCOC(=O)N1CCN(C(=O)C2CCCN(c3nc4ccc(OCC)cc4s3)C2)CC1 (stereo not shown) | 0.137%
Cc1ccc(C(=O)Nc2ccccc2)cc1S(=O)(=O)N1CCOCC1 | -5.28%
Oc1ccc(/C=C/c2cc(O)n3nnnc3n2)cc1 | 3.5%
COc1ccc(C(=O)N2CCN(c3cccc(C)c3C)CC2)cc1 | 5.24%
O=C(O)CCNc1cn2c(n1)CCC2 | 2.86%
O=C1S/C(=C\c2ccccn2)C(=O)N1Cc1ccccc1F | -5.82%
Cc1cccc(-c2nnc3sc(NC(=O)COc4ccccc4F)nn23)c1 | -1.26%
COc1cccc(C(=O)Cn2c(N3CCOCC3)nc3c2c(=O)n(C)c(=O)n3C)c1 | 4.11%
COc1ccc(C(C)C)cc1S(=O)(=O)NCC1CCCO1 (stereo not shown) | 1.94%
CSc1ccccc1NC(=O)CSc1nccn1C | 7.18%
O=C(O)c1ccc(NCc2cccs2)cc1 | -2.18%
CCOC(=O)C1=CN(C(C)C)C=C(C(=O)OCC)C1c1cccc(OC)c1 | 1.86%
CCOC(=O)C1CCN(c2ccc3ccccc3n2)CC1 | -2.48%
O=C(O)Cn1cc(/C=C2/NC(=O)N(c3cccc(Cl)c3)C2=O)c2ccccc21 | 1.96%
O=C(CCCN1C(=O)C(c2ccccc2)Oc2cccnc21)NCCC1=CCCCC1 (stereo not shown) | -6.3%

SMILES | % Inhibition @ 10 uM
COc1ccc(C(=O)N(C)C2CCCCC2)cc1 | 0.247%
COc1cc(NS(=O)(=O)c2ccccc2)cc(OC)c1 | 5.9%
COC(=O)c1ccc(-c2ccco2)n1Cc1nc(-c2ccc(OC)c(OC)c2)oc1C | -2.17%
CCN(C(=O)c1ccc([N+](=O)[O-])cc1)c1ccccc1 | 1.48%
CCOC(=O)N1CCN(C(=O)c2cc3cc4ccc(OC)cc4nc3o2)CC1 | -3.35%
CC(C)(C)C1CCc2c(sc3nnn(CC(=O)c4ccccc4)c(=O)c23)C1 (stereo not shown) | 2.41%
Cc1cc(C)c(OCC(O)CNC2CC(C)(C)NC(C)(C)C2)c(C)c1 (stereo not shown) | -8.3%
COc1ccc(N(CC(=O)Nc2cc(C)ccc2OC)S(=O)(=O)c2ccccc2)cc1 | 4.76%
CC(C)c1ccc(NC(=O)Nc2ccc(Cl)cc2)cc1 | -2.12%
O=C(CN1C(=O)S/C(=C/c2cccs2)C1=O)Nc1ccc(Cl)cc1 | -5.31%
CC(C)c1ccc2c(c1)CCC1C2CCCC1(C)C(=O)O (stereo not shown) | 0.0538%
Cc1cccc(C)c1NC(=O)NC1CCCCC1 | 1.13%
Cn1cc(Br)c(C(=O)Nc2ccn(Cc3cccc4ccccc34)n2)n1 | 0.389%
CCCCOc1ccccc1C(=O)Nc1nonc1-c1ccc(OC)cc1 | 2.29%
O=C1Nc2ccc(Cl)cc2SC(c2ccc(Cl)cc2)C1O (stereo not shown) | -0.99% and 1.19%
COc1ccccc1/C=C(\NC(=O)c1ccccc1)C(=O)Nc1ccccc1C | 4.08%
Cc1c(C2(c3c(C)n(C)n(-c4ccccc4)c3=O)C(=O)Nc3ccccc32)c(=O)n(-c2ccccc2)n1C | 0.634%
COc1cc(OC)cc(C(=O)Nc2nc(-c3nnn(-c4cc(C)ccc4OC)c3C)ns2)c1 | 3.12%
Cc1ccc(CS(=O)Cc2ccc(C(=O)NC(C)C)o2)cc1 (stereo not shown) | -4.21%
Cc1ccc(-n2ncc(C(=O)NC(C)C)c2C2CCN(C(=O)OC(C)(C)C)CC2)cc1 | -2.53%
CC1=C(CCN2CCCC(C(N)=O)C2)C(C)(C)CCC1 (stereo not shown) | 0.0792%
COC(=O)c1cc(C)nc2c1c(C)nn2-c1cccc(Cl)c1C | 1.46%
CC1(C)CN2C(=O)C(NC(=O)c3ccccc3)(C(F)(F)F)N=C2S1 (stereo not shown) | -1.11%
O=C(Cn1cnc2onc(-c3ccc(F)cc3)c2c1=O)N1CCOCC1 | -2.14%
Nc1nnc(-c2ccccc2)c(-c2ccccc2)n1 | -5.51%

SMILES | % Inhibition @ 10 uM
CCCC(=O)Nc1cccc2c(NC(=O)CCC)cccc12 | -2.85%
O=C(Nc1cccc(NC(=O)c2cccs2)n1)c1cccs1 | -7.3%
Clc1ccc(C2CC(c3ccco3)n3ncnc3N2)cc1 (stereo not shown) | -4.52%
CN1C(=O)/C(=C/c2cccc(O)c2)S/C1=N/c1ccc(Cl)cc1 | 5.37%
CCCc1nc(SC)ncc1C(=O)NCc1ccc(C)o1 | 2.25%
Cc1ccc(C2C(C(=O)c3cc4ccccc4o3)=C(O)C(=O)N2CCCn2ccnc2)cc1 (stereo not shown) | -7.34%
COc1nc(-c2cccs2)cc(-c2ccc(C)cc2)c1C#N | -5.63%
CCOC(=O)C1=CN(C)C=C(C(=O)OCC)C1c1ccc(C)s1 | -5.05%
CC1=NN(c2ccccc2)C(=O)/C1=C/c1ccc(Cl)cc1Cl | -3.55%
Nc1nc(CS(=O)(=O)c2ccc3ccccc3c2)cs1 | -2.7%
COc1ccc(CN2COc3ccc4c(oc(=O)c5ccccc54)c3C2)cc1 | 2.54%
CCOC(=O)C1=C(NC(=O)Cc2ccccc2)c2ccccc2CC1(CC)CC | -0.178%
Cc1ccc(CNCc2c(C(=O)O)n(Cc3ccccc3C)c3ccccc23)o1 | -0.285%
Cc1ccccc1OCC(O)Cn1c(NCc2ccccc2)nc2c1c(=O)[nH]c(=O)n2C (stereo not shown) | 4.36%
CCCOC(=O)C1=C(C)NC(=O)NC1c1ccccc1OC (stereo not shown) | 4.35%
O=C(N/C(=C\c1ccccc1Cl)C(=O)N1CCCCCC1)c1ccccc1 | -5.07%
CC(C)(C)c1ccc(/C=C2/N=C(c3ccccc3)NC2=O)cc1 | 0.9%
COc1ccc(S(=O)(=O)N(CC(=O)NCc2ccco2)c2ccc(C)cc2)cc1 | 1.59%
COc1ccc(C(=O)N/C(=C\c2ccccc2)C(=O)Nc2ccccc2C(=O)O)cc1 | 2.36%
Cc1cc(/C=C2\C(=N)N3N=C(S(C)(=O)=O)SC3=NC2=O)c(C)n1-c1cccc(C(F)(F)F)c1 | 3.53%
COc1cccc(C2CN(c3ccc(F)cc3F)N=C2c2cccs2)c1OC (stereo not shown) | 5.03%
Cc1ccc(OCC(=O)Nc2ccc(C)cn2)cc1 | 0.145%
CC(C)c1nnc(NC(=O)/C=C/c2ccc3c(c2)OCO3)s1 | 0.222%
C1=C(c2nc3ccccc3s2)N2CCCN=C2S1 | -1.98%
c1nc(NCCN2CCOCC2)c2sc3nc(N4CCOCC4)c4c(c3c2n1)CCCC4 | 1.8%

SMILES | % Inhibition @ 10 uM
CCN(CC)CN1C(=O)C2C3c4ccccc4C(c4ccccc43)C2C1=O (stereo not shown) | -4.82%
Cc1ccccc1NC(=O)C1(NC(=O)Cc2n[nH]c(N)n2)CCCCC1 | -7.23%
CCOC(=O)C1=C(CS(=O)(=O)c2ccc(F)c(C)c2)NC(=O)NC1c1ccc(O)c(OC)c1 (stereo not shown) | 2.85%
Cc1ccc2occ(CC(=O)Nc3nnc(C)s3)c2c1 | 1%
C=C(C)[C@@H]1CC=C(CN2CCN(c3cccc(OC)c3)CC2)CC1 | -1.64%
O=C(O)c1ccc(Oc2ccc3c(c2)C(=O)N(c2nccs2)C3=O)cc1 | -1.91%
C#CCSc1nc(C)c2cc(OC)ccc2n1 | -2.83%
O=C(c1ccco1)N1CCN(C(=O)C23CC4CC(CC(C4)C2)C3)CC1 | 0.00178%
COc1ccc(OCCn2c(C)c(C(=O)C(F)(F)F)c3ccccc32)cc1 | 5.21%
O=S(=O)(Nc1cccc2ccccc12)c1ccc(Br)s1 | -6.05%
OCCN(Cc1ccccc1)CC1CCCCC1 | 2.7%
COc1cc(Br)c(C2CC(=O)Nc3c2ccc2ccccc32)cc1OC (stereo not shown) | -8.95%
O=c1cccc2n1CC1CC2CN(Cc2nnc(-c3cccc(Cl)c3)o2)C1 (stereo not shown) | -5.63%
c1ccc(C2N(c3ccccc3)CCN2c2ccccc2)cc1 | -0.0217%
CCC1CCC(N2CCN(C)CC2)CC1 (stereo not shown) | -2.02%
NC(=O)c1cc(S(=O)(=O)NC2CCCc3ccccc32)cs1 (stereo not shown) | -1.97%
Nc1nc(O)c2[nH]c(N3CCOCC3)nc2n1 | -4.41%
CC/C(=N\O)C(=O)c1ccc(Br)cc1 | 0.266%
Cc1nnc(SCc2nc(-c3cccs3)no2)n1-c1ccc(Cl)cc1 | -0.45%
CC(C)(C)c1ccc(S(=O)(=O)N2CCN(c3ccc(F)cc3)CC2)cc1 | 0.389%
CCCc1cc(O)nc(SCC(=O)NCC23CC4CC(CC(C4)C2)C3)n1 | -1.61%
CCN(CC)c1ccc(Nc2nc(-c3c(C)nc4sccn34)cs2)cc1 | -2.48%
Cc1ccc(CNC(=O)CN(c2ccc(Br)cc2)S(=O)(=O)c2ccccc2)cc1 | 9.83%
Cc1ccc(OCC(=O)Nc2cccc(Cl)c2C)c(Br)c1 | 0.215%
CCN1CCC(=O)N(CC)c2ccccc21 | 1.62%
